Experimental data reported in article PMC11675949.
These are yes or no findings as the source states them, for the method shown. In cells and extracts the contact can be indirect. Some results given as binding are weak or reduced against the parent protein; the word gives no strength. Sequences can lack the tags named with a protein.

Sequences of proteins named here, by UniProt entry; tags and fusion partners are left off.
UniProt P49736: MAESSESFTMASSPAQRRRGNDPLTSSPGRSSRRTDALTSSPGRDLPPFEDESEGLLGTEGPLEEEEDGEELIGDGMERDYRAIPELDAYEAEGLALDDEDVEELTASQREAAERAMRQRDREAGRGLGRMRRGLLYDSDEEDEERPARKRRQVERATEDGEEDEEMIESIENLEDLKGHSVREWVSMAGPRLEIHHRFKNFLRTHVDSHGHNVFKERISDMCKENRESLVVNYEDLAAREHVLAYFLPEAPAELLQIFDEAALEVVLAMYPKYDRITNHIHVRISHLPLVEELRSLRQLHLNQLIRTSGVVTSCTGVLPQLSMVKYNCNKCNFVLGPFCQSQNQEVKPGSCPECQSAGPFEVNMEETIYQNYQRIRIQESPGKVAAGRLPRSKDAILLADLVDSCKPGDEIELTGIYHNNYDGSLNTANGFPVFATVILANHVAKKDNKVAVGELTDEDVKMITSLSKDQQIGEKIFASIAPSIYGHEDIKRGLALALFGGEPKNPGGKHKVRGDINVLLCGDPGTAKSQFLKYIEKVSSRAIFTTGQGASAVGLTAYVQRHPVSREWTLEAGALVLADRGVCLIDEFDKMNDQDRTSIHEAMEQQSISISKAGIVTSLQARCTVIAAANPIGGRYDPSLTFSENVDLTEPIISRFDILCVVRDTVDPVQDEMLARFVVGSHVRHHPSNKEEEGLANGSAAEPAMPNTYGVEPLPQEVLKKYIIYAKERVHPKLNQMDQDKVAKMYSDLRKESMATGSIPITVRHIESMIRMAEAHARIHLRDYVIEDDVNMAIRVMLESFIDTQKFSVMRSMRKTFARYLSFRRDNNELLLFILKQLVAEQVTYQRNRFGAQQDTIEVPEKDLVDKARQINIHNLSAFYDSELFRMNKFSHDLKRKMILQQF
UniProt P15927: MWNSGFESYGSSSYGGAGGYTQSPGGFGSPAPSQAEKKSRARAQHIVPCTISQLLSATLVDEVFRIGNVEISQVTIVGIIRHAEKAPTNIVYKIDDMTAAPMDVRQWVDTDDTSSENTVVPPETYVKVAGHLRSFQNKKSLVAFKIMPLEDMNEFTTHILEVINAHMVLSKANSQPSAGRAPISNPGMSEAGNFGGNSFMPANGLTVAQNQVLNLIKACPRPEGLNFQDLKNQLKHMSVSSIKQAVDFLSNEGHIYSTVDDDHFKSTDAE

T1: HROB fused to a carboxy-proximal Cerulean fluorescent protein (HROB-Cer) (human) (UniProt Q8N3J3)
T1 sequence: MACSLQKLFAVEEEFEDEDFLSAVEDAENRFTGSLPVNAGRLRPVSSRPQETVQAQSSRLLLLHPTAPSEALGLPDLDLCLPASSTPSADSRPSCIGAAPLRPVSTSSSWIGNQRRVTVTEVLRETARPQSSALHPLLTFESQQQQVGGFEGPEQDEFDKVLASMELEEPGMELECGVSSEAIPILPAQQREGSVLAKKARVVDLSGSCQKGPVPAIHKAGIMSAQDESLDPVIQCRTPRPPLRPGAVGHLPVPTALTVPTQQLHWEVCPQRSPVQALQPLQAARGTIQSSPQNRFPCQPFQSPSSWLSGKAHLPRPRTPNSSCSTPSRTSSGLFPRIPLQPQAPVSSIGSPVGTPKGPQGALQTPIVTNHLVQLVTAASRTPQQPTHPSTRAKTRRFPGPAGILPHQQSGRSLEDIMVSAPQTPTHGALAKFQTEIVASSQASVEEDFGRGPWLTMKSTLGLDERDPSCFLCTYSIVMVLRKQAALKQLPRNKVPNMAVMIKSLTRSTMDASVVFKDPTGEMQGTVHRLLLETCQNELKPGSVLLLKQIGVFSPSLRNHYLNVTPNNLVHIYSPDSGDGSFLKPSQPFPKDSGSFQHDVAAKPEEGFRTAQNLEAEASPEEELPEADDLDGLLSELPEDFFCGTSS

T2: Cdc45 fluorescent fusion protein of the FRET assays with Cdc45 fusion proteins (Supplementary Figure S11) (human) (UniProt O75419)
T2 sequence: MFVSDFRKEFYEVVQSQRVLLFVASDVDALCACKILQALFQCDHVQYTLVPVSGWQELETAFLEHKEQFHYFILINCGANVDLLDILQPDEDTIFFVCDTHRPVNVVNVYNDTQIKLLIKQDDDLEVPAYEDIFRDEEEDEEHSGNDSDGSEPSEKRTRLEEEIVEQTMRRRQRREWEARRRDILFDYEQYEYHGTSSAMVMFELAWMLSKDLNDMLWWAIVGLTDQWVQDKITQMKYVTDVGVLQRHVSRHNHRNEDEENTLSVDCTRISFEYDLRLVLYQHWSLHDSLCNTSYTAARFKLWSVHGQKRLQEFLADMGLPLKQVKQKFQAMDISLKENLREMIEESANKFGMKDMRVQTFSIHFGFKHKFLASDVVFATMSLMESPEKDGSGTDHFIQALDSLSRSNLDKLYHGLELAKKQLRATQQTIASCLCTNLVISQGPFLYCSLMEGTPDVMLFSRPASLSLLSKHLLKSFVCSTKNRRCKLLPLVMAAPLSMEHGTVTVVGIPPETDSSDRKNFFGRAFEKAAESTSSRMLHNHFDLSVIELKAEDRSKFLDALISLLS


Columns and labels:
[1] = target: T1, HROB fused to a carboxy-proximal Cerulean fluorescent protein (HROB-Cer) (human); experiment: FRET or BRET; flow cytometry FRET assay on living HEp-2 cells 18-20 h after transient co-transfection of Cerulean and Venus fusion proteins; read-out: proportion of FRET-positive cells among Cer- and Ven-double-positive cells
[2] = target: T2, Cdc45 fluorescent fusion protein of the FRET assays with Cdc45 fusion proteins (Supplementary Figure S11) (human); experiment: as above

Molecule	binding [1]	binding [2]
Mcm2, Venus fusion (from UniProt P49736 1-904)	binds	
Mcm5, Venus fusion (protein, UniProt P33992 1-734) MSGFDDPGIFYSDSFGGDAQADEGQARKSQLQRRFKEFLRQYRVGTDRTGFTFKYRDELKRHYNLGEYWIEVEMEDLASFDEDLADYLYKQPAEHLQLLEEAAKEVADEVTRPRPSGEEVLQDIQVMLKSDASPSSIRSLKSDMMSHLVKIPGIIIAASAVRAKATRISIQCRSCRNTLTNIAMRPGLEGYALPRKCNTDQAGRPKCPLDPYFIMPDKCKCVDFQTLKLQELPDAVPHGEMPRHMQLYCDRYLCDKVVPGNRVTIMGIYSIKKFGLTTSRGRDRVGVGIRSSYIRVLGIQVDTDGSGRSFAGAVSPQEEEEFRRLAALPNVYEVISKSIAPSIFGGTDMKKAIACLLFGGSRKRLPDGLTRRGDINLLMLGDPGTAKSQLLKFVEKCSPIGVYTSGKGSSAAGLTASVMRDPSSRNFIMEGGAMVLADGGVVCIDEFDKMREDDRVAIHEAMEQQTISIAKAGITTTLNSRCSVLAAANSVFGRWDETKGEDNIDFMPTILSRFDMIFIVKDEHNEERDVMLAKHVITLHVSALTQTQAVEGEIDLAKLKKFIAYCRVKCGPRLSAEAAEKLKNRYIIMRSGARQHERDSDRRSSIPITVRQLEAIVRIAEALSKMKLQPFATEADVEEALRLFQVSTLDAALSGTLSGVEGFTSQEDQEMLSRIEKQLKRRFAIGSQVSEHSIIKDFTKQKYPEHAIHKVLQLMLRRGEIQHRMQRKVLYRLK	binds	
RecQL4, Venus fusion (protein, UniProt O94761 1-1208) MERLRDVRERLQAWERAFRRQRGRRPSQDDVEAAPEETRALYREYRTLKRTTGQAGGGLRSSESLPAAAEEAPEPRCWGPHLNRAATKSPQSTPGRSRQGSVPDYGQRLKANLKGTLQAGPALGRRPWPLGRASSKASTPKPPGTGPVPSFAEKVSDEPPQLPEPQPRPGRLQHLQASLSQRLGSLDPGWLQRCHSEVPDFLGAPKACRPDLGSEESQLLIPGESAVLGPGAGSQGPEASAFQEVSIRVGSPQPSSSGGEKRRWNEEPWESPAQVQQESSQAGPPSEGAGAVAVEEDPPGEPVQAQPPQPCSSPSNPRYHGLSPSSQARAGKAEGTAPLHIFPRLARHDRGNYVRLNMKQKHYVRGRALRSRLLRKQAWKQKWRKKGECFGGGGATVTTKESCFLNEQFDHWAAQCPRPASEEDTDAVGPEPLVPSPQPVPEVPSLDPTVLPLYSLGPSGQLAETPAEVFQALEQLGHQAFRPGQERAVMRILSGISTLLVLPTGAGKSLCYQLPALLYSRRSPCLTLVVSPLLSLMDDQVSGLPPCLKAACIHSGMTRKQRESVLQKIRAAQVHVLMLTPEALVGAGGLPPAAQLPPVAFACIDEAHCLSQWSHNFRPCYLRVCKVLRERMGVHCFLGLTATATRRTASDVAQHLAVAEEPDLHGPAPVPTNLHLSVSMDRDTDQALLTLLQGKRFQNLDSIIIYCNRREDTERIAALLRTCLHAAWVPGSGGRAPKTTAEAYHAGMCSRERRRVQRAFMQGQLRVVVATVAFGMGLDRPDVRAVLHLGLPPSFESYVQAVGRAGRDGQPAHCHLFLQPQGEDLRELRRHVHADSTDFLAVKRLVQRVFPACTCTCTRPPSEQEGAVGGERPVPKYPPQEAEQLSHQAAPGPRRVCMGHERALPIQLTVQALDMPEEAIETLLCYLELHPHHWLELLATTYTHCRLNCPGGPAQLQALAHRCPPLAVCLAQQLPEDPGQGSSSVEFDMVKLVDSMGWELASVRRALCQLQWDHEPRTGVRRGTGVLVEFSELAFHLRSPGDLTAEEKDQICDFLYGRVQARERQALARLRRTFQAFHSVAFPSCGPCLEQQDEERSTRLKDLLGRYFEEEEGQEPGGMEDAQGPEPGQARLQDWEDQVRCDIRQFLSLRPEEKFSSRAVARIFHGIGSPCYPAQVYGQDRRFWRKYLHLSFHALVGLATEELLQVAR	no binding	
Cdc45, Venus fusion (protein, UniProt O75419 1-566) MFVSDFRKEFYEVVQSQRVLLFVASDVDALCACKILQALFQCDHVQYTLVPVSGWQELETAFLEHKEQFHYFILINCGANVDLLDILQPDEDTIFFVCDTHRPVNVVNVYNDTQIKLLIKQDDDLEVPAYEDIFRDEEEDEEHSGNDSDGSEPSEKRTRLEEEIVEQTMRRRQRREWEARRRDILFDYEQYEYHGTSSAMVMFELAWMLSKDLNDMLWWAIVGLTDQWVQDKITQMKYVTDVGVLQRHVSRHNHRNEDEENTLSVDCTRISFEYDLRLVLYQHWSLHDSLCNTSYTAARFKLWSVHGQKRLQEFLADMGLPLKQVKQKFQAMDISLKENLREMIEESANKFGMKDMRVQTFSIHFGFKHKFLASDVVFATMSLMESPEKDGSGTDHFIQALDSLSRSNLDKLYHGLELAKKQLRATQQTIASCLCTNLVISQGPFLYCSLMEGTPDVMLFSRPASLSLLSKHLLKSFVCSTKNRRCKLLPLVMAAPLSMEHGTVTVVGIPPETDSSDRKNFFGRAFEKAAESTSSRMLHNHFDLSVIELKAEDRSKFLDALISLLS	binds	

Other lines, results leading:

binding [1]	binding [2]	Molecule
binds		RPA32, Venus fusion (from UniProt P15927 1-270)
	binds	Mcm5 fluorescent fusion protein of the FRET assays with Cdc45 fusion proteins (Supplementary Figure S11) (protein, UniProt P33992 1-734) MSGFDDPGIFYSDSFGGDAQADEGQARKSQLQRRFKEFLRQYRVGTDRTGFTFKYRDELKRHYNLGEYWIEVEMEDLASFDEDLADYLYKQPAEHLQLLEEAAKEVADEVTRPRPSGEEVLQDIQVMLKSDASPSSIRSLKSDMMSHLVKIPGIIIAASAVRAKATRISIQCRSCRNTLTNIAMRPGLEGYALPRKCNTDQAGRPKCPLDPYFIMPDKCKCVDFQTLKLQELPDAVPHGEMPRHMQLYCDRYLCDKVVPGNRVTIMGIYSIKKFGLTTSRGRDRVGVGIRSSYIRVLGIQVDTDGSGRSFAGAVSPQEEEEFRRLAALPNVYEVISKSIAPSIFGGTDMKKAIACLLFGGSRKRLPDGLTRRGDINLLMLGDPGTAKSQLLKFVEKCSPIGVYTSGKGSSAAGLTASVMRDPSSRNFIMEGGAMVLADGGVVCIDEFDKMREDDRVAIHEAMEQQTISIAKAGITTTLNSRCSVLAAANSVFGRWDETKGEDNIDFMPTILSRFDMIFIVKDEHNEERDVMLAKHVITLHVSALTQTQAVEGEIDLAKLKKFIAYCRVKCGPRLSAEAAEKLKNRYIIMRSGARQHERDSDRRSSIPITVRQLEAIVRIAEALSKMKLQPFATEADVEEALRLFQVSTLDAALSGTLSGVEGFTSQEDQEMLSRIEKQLKRRFAIGSQVSEHSIIKDFTKQKYPEHAIHKVLQLMLRRGEIQHRMQRKVLYRLK
